Data as given in PubChem BioAssay AID588342 (National Center for Advancing Translational Sciences (NCATS), 2011).
About 25,000 (6.9%) of roughly 360,000 compounds were called active. The inconclusive results got no clear call from the source; some entries with a clear call stand among them for comparison. Calls follow the shape of the dose curve; as a rule, active = well fitted inhibition curve with a large enough effect; inconclusive = small, poorly fitted or top-dose-only effect; inactive = flat fitted curve, though single readings scatter. Potencies of inconclusive entries are doubtful fits and often do not repeat.
Also: nearly all actives have a fitted effect of over 55% in size.
Potency is read from the fitted curve at half-maximal effect; tags tell the direction and shape of the fitted curve.

Each compound was assayed against Luciferin 4-monooxygenase (Photinus pyralis) (UniProt P08659) (assay: qHTS profiling assay for firefly luciferase inhibitor/activator using purifed enzyme and Km concentrations of substrates (counterscreen for miR-21 project)). Conditions: purified FLuc, luminescence inhibition; series mostly up to 57.5 µM.
UniProt P08659, sequence (P08659 whole entry, looked up): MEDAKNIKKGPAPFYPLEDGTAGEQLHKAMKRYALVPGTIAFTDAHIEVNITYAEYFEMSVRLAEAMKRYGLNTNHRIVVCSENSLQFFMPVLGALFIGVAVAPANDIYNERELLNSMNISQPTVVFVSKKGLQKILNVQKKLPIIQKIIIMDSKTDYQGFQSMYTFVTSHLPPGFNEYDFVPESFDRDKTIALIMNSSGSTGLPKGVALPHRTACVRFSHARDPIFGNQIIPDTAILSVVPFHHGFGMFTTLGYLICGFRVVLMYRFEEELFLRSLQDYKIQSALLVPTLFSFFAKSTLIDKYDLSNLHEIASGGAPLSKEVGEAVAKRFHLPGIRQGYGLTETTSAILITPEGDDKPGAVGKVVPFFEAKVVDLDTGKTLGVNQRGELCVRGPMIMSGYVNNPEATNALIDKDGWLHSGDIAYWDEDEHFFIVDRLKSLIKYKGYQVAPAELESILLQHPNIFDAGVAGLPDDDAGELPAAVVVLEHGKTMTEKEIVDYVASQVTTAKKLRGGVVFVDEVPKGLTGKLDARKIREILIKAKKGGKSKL
How it was run: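 Purified P. pyralis luciferase (10nM final) with 10uM D-luciferin and 10uM ATP (Km levels) in 50mM Tris acetate pH 7.5, 10mM Mg acetate, 0.01% Tween-20, 0.05% BSA; qHTS 6-point titration, ~60 µM downward; luminescence read.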
For `C[C@H](N=C1NS(=O)(=O)c2ccccc21)C(=O)OCc1cc([N+](=O)[O-])cc2c1OCOC2`, the Potency was inconclusive: 23.9 µM [inhibitor, partial curve, poor fit].
In the case of `O=C1COc2ccc(C(=O)COC(=O)c3ccccn3)cc2N1`, the Potency was inconclusive: 21.3 µM [inhibitor, single point].
For `O=C(CSc1nnc(SCc2cccc3ccccc23)s1)N/N=C/c1c[nH]c2ccccc12`, the Potency was inconclusive: 13.5 µM [inhibitor, partial curve, poor fit].
With `COc1ccc(C[C@H]2CN3C(=NC[C@H]3Cc3ccccc3)N2CCNC(=O)CCC2CCCCC2)cc1` the Potency was “inactive”.
In the case of `O=C(C[n+]1cn(C(F)F)c2ccccc21)c1ccc(OC(F)F)cc1`, the Potency was inconclusive: 21.3 µM [inhibitor, single point].
In the case of `COc1ccc(-c2noc(CCC(=O)Nc3cccnc3)n2)cc1`, the Potency was inconclusive: 23.9 µM [inhibitor, single point].
For `CC1(C)Cc2c(sc(NC(=S)NC(=O)c3ccccc3)c2C(=O)O)CO1`, the Potency was inconclusive: 21.3 µM [inhibitor, single point].
With `Cc1ccc(/C=C/C(=O)N2CCCC(C)C2)cc1` (stereo not drawn) the Potency was active: 3.01 µM.
For `Cc1onc(-c2ccccc2)c1-c1nnc(-c2ccccc2C(F)(F)F)o1`, the Potency was “inactive”.
`COc1cc(C(=O)N2CCN(C(=O)c3cc(-c4ccccc4)n[nH]3)CC2)cc(OC)c1OC` was tested, and the Potency was inconclusive: 37.9 µM [inhibitor, single point].
In the case of `O=C(CSc1nc2ccccc2c(=O)n1-c1ccc(F)cc1)NC1CCS(=O)(=O)C1` (stereo not drawn), the Potency was “inactive”.
In the case of `C/C(=N\NC(=S)NCc1ccccc1)c1ccc(C)o1`, the Potency was “inactive”.
For `CCN1C(=O)c2cccc3c(N)ccc1c23`, the Potency was inconclusive: 37.9 µM [inhibitor, single point].
For `O=C(N/N=C/c1cccc2cccnc12)c1ccccc1O`, the Potency was active: 7.57 µM.
In the case of `CCN(C(=O)c1ccc(S(=O)(=O)N2CCC(C)CC2)cc1)C1CCS(=O)(=O)C1` (stereo not drawn), the Potency was “inactive”.
With `Cc1cc(C)cc(NS(=O)(=O)c2ccc3[nH]cc(C(=O)N4CCCCCC4)c(=O)c3c2)c1` the Potency was inconclusive: 8.49 µM [inhibitor, partial curve].
For `COC(=O)Oc1ccc(/C=N/NC(=O)CSCc2ccccc2Br)cc1OC`, the Potency was “inactive”.
For `O=C(C[n+]1ccncc1)c1ccccc1`, the Potency was “inactive”.
In the case of `CCc1noc(C)c1C(=O)N1CCN(S(=O)(=O)c2cccs2)CC1`, the Potency was “inactive”.
In the case of `COc1cccc(NC(=O)Cc2nnc(SCC(=O)NC3=NCCS3)n2C)c1`, the Potency was inconclusive: 37.9 µM [inhibitor, single point].
With `Cc1cccc(C(=O)Nc2cccnc2Cl)c1` the Potency was inconclusive: 30.1 µM [inhibitor, partial curve, poor fit].
In the case of `CCOC(=O)c1[nH]c(C)c(CCC(=O)NCc2ccccc2C)c1C`, the Potency was “inactive”.
`COc1cccc(NC(=O)C(=O)N/N=C/c2ccc3c(c2)OCO3)c1` was tested, and the Potency was inconclusive: 13.5 µM [inhibitor, partial curve, poor fit].
For `O=C(Nc1ccccc1)c1ccc(NCC2CCCO2)c([N+](=O)[O-])c1` (stereo not drawn), the Potency was inconclusive: 6.01 µM [inhibitor, partial curve].
With `Cc1cc(N/N=C/c2ccc(Cl)cc2)nc(NCc2ccccc2)n1` the Potency was active: 15.1 µM.
For `O=C(O)C1=C[C@H](c2ccc(F)cc2)C[C@H](OCCCCO)O1`, the Potency was “inactive”.
With `Cc1nn(C(=O)c2cccc(F)c2)c(C)c1S(=O)(=O)N1CCCCCC1` the Potency was inconclusive: 23.9 µM [inhibitor, partial curve, poor fit].
With `CCCN1CCN(CCCNC(=O)Cn2c(-c3cccs3)cc3ccccc32)CC1` the Potency was “inactive”.
For `Cc1cnc(=O)[nH]c1SCC(=O)c1ccc(F)cc1`, the Potency was inconclusive: 26.9 µM [inhibitor, partial curve, poor fit].
In the case of `Cc1ccccc1C(C)NC(=O)COC(=O)Cn1cc(C(F)(F)F)ccc1=O` (stereo not drawn), the Potency was “inactive”.
`Oc1ccc(Cl)cc1N=Nc1ccccc1` was tested, and the Potency was active: 13.5 µM.
With `CC(Oc1ccccc1F)C(=O)NNC(=O)CC(C)c1ccccc1` (stereo not drawn) the Potency was “inactive”.
For `FC(F)Sc1ccc(NC(=S)NCc2ccccc2)cc1`, the Potency was inconclusive: 37.9 µM [inhibitor, single point].
In the case of `O=C(NCc1ccc2c(c1)OCO2)C(=O)NCC(c1ccco1)N1CCN(c2ccccc2)CC1` (stereo not drawn), the Potency was “inactive”.
For `Nc1nonc1-n1nnc(C(=O)N/N=C/c2ccco2)c1CSc1ccccc1`, the Potency was “inactive”.
With `COc1ccc(N=Cc2ccc(-c3ccccc3)o2)cc1` the Potency was active: 3.01 µM.
For `CN(CC(=O)Nc1ccc(Cl)cc1)C(=O)c1ccc(S(=O)(=O)Nc2ccccc2)cc1`, the Potency was inconclusive: 33.8 µM [inhibitor, partial curve, poor fit].
In the case of `Cc1ccc(NC(=O)C2OCCc3ccccc32)cc1C` (stereo not drawn), the Potency was active: 15.1 µM.
`O=C(c1ccc(F)cc1)N1CCC(c2ccccc2)C1` (stereo not drawn) was tested, and the Potency was inconclusive: 19 µM [inhibitor, partial curve].
For `CCOc1ccc(/C=C/C(=O)Nc2ccccc2C(F)(F)F)cc1`, the Potency was inconclusive: 7.57 µM [inhibitor, full curve].
`O=C(NCc1ccccc1Cl)c1cc2ccccc2o1` was tested, and the Potency was inconclusive: 23.9 µM [inhibitor, single point].
`CC(=O)Nc1cccc(Oc2nc(-c3ccccn3)nc3ccccc23)c1` was tested, and the Potency was active: 15.1 µM.
For `COc1cc(/C=C(\C#N)C(=O)Nc2ccc(C(=O)O)cc2)ccc1OC(=O)c1cccc(F)c1`, the Potency was inconclusive: 26.9 µM [inhibitor, single point].
With `Cc1cc(C)c2c(CN3CCCCC3C)cc(=O)oc2c1` (stereo not drawn) the Potency was “inactive”.
For `CCCS(=O)(=O)N1CCCC(C(=O)NCCCOC)C1` (stereo not drawn), the Potency was “inactive”.
In the case of `O=C(O)COc1ccc2c(c1)O/C(=C\c1ccco1)C2=O`, the Potency was inconclusive: 19 µM [inhibitor, partial curve].
For `O=C(O)c1csc(-n2nc(-c3ccccc3)cc2C(F)(F)F)n1`, the Potency was inconclusive: 26.9 µM [inhibitor, single point].
In the case of `COc1ccc(C(=O)COc2ccc3ccc(=O)oc3c2)cc1`, the Potency was inconclusive: 21.3 µM [inhibitor, single point].
For `Cc1ccc2[nH]c(CSc3nnc(NC(=O)c4ccccc4C)s3)cc(=O)c2c1`, the Potency was inconclusive: 37.9 µM [inhibitor, partial curve, poor fit].
`CCOC(=O)c1oc2ccc(/C=N/O)c(Cl)c2c1C` was tested, and the Potency was inconclusive: 10.7 µM [inhibitor, partial curve, poor fit].
For `O=C(N/N=C/c1ccc([N+](=O)[O-])cc1)c1cccc(N2CCCC2=O)c1`, the Potency was inconclusive: 15.1 µM [inhibitor, partial curve].
`Cc1nn(C)c(C(=O)N/N=C/c2ccc(-c3ccccc3)cc2)c1Cl` was tested, and the Potency was “inactive”.
With `CN(C(=O)CSc1nnc(NCc2ccccc2)s1)C1CCS(=O)(=O)C1` (stereo not drawn) the Potency was inconclusive: 19 µM [inhibitor, partial curve].
With `COc1ccc(N2CCN(C(=O)CCc3c(C)nc4cc(-c5ccc(Cl)cc5)nn4c3C)CC2)cc1` the Potency was inconclusive: 21.3 µM [inhibitor, partial curve].
For `CC(C)NC(=O)/C(C#N)=C\c1ccc(N(C)C)c(Br)c1`, the Potency was inconclusive: 23.9 µM [inhibitor, single point].
For `CCCn1c(/C=C/c2ccco2)nc2ccccc21`, the Potency was active: 12 µM.
With `O=S(=O)(c1ccc2c(c1)OCCO2)N1CCN(S(=O)(=O)c2ccc3c(c2)OCCO3)CC1` the Potency was active: 0.601 µM.
For `CC1=C(c2ccc(C)c(C)c2)S(=O)(=O)N=C1N1CCC(C(=O)NCCc2ccco2)CC1`, the Potency was “inactive”.
With `CCc1ccc(Nc2n[n+](-c3ccccc3)c(-c3ccc(OCc4ccccc4)cc3)s2)cc1` the Potency was inconclusive: 30.1 µM [inhibitor, single point].
For `Cc1ccc(-c2cc(C(=O)N3CCN(S(=O)(=O)c4ccc(Br)cc4)CC3)[nH]n2)cc1C`, the Potency was “inactive”.
For `CS(=O)(=O)N1CCc2cc(C(=O)NCCc3ccccc3)ccc21`, the Potency was inconclusive: 23.9 µM [inhibitor, single point].
For `O=C1NN(c2ccccc2)C(=O)/C1=C\c1ccccc1OCC(=O)N1CCOCC1`, the Potency was inconclusive: 21.3 µM [inhibitor, partial curve, poor fit].
With `CC(Sc1nc2ccc(Br)cc2[nH]1)C(=O)O` (stereo not drawn) the Potency was inconclusive: 26.9 µM [inhibitor, partial curve, poor fit].
`CCCCC(=O)N1CCN(c2nc(-c3ccc(F)cc3)cs2)CC1` was tested, and the Potency was inconclusive: 30.1 µM [inhibitor, partial curve].
`CCOc1cc(Cl)c(NC(C)=O)cc1OCC` was tested, and the Potency was “inactive”.
For `CCN1CCN(c2ccc(NC(=O)c3cc4ccccc4cc3OC)cc2C)CC1`, the Potency was active: 8.49 µM.
For `COc1ccc(C(=O)NCCn2cc(SCC(=O)NCCc3ccc(OC)c(OC)c3)c3ccccc32)cc1`, the Potency was inconclusive: 23.9 µM [inhibitor, partial curve].
In the case of `Cc1ccc(-c2nnc(SCC(C)C)n2C)cc1`, the Potency was inconclusive: 23.9 µM [inhibitor, single point].
For `O=C(CCc1c[nH]c2ccccc12)OCc1ccc(Br)cc1`, the Potency was “inactive”.
For `COc1cccc(NC(=O)CCc2c(C)nc3c4cccnc4nn3c2C)c1`, the Potency was “inactive”.
`O=C(Nc1ccc(N2CCC(c3ccccc3)C2)c(C(=O)O)c1)c1ccc(Cl)cc1` (stereo not drawn) was tested, and the Potency was inconclusive: 10.7 µM [inhibitor, partial curve, poor fit].
`O=C(CSc1ncccn1)NCc1ccc(Cl)cc1` was tested, and the Potency was inconclusive: 23.9 µM [inhibitor, partial curve, poor fit].
For `O=C(COc1cccnc1[N+](=O)[O-])c1c[nH]c2ccccc12`, the Potency was inconclusive: 16.9 µM [inhibitor, partial curve, poor fit].
